Laboratory results: the supplement of paper PMC5919970
Structures can show the parent of a compound that is named as a salt. In all, about 2,000 compounds were measured (“fractional viability relative to vehicle”: median about 0.91, lowest 2% from about 0.045 on). This is one part of the list.

Test system: TYKNU
Assay: fractional viability relative to vehicle; TYKNU is a high-grade serous ovarian cancer line; higher = less growth inhibition
Settings: 72 h
In short: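 TYKNU control cells or lentiCRISPRv2 knockout derivatives were seeded at 500 cells per well into drug-stamped 384-well plates holding a ~2100-compound library at 2 or 10 μM, in duplicate. Cells were grown at 37 °C in 5% CO2 in RPMI 1640 with 10% FBS, and drug treatment lasted 72 h. Viability was read by Cell Titer Glo luminescence. Duplicate treatment wells were averaged and normalised to duplicate control wells from the same plate position.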

[1] = 2uM, genotype: DNM1L knockout (sgDNM1L #1)
[2] = 2uM, genotype: sgCTRLA1 (non-targeting control)
[3] = 10uM, genotype: DNM1L knockout (sgDNM1L #1)
[4] = 10uM, genotype: sgCTRLA1 (non-targeting control)

NC(=O)CCCSc1nc(N)nc(-c2c(Cl)cc3c4c(cccc24)COC3)n1
fractional viability [1]: 0.91
fractional viability [2]: 0.97
fractional viability [3]: 0.915
fractional viability [4]: 0.789

Nc1nc(Nc2ccc(S(N)(=O)=O)cc2)nn1C(=O)c1c(F)cccc1F
fractional viability [1]: 0.583
fractional viability [2]: 0.742
fractional viability [3]: 0.255
fractional viability [4]: 0.282

O=C(NCc1ccc(Oc2ccccc2)cc1)c1nc(-c2cc(Br)c(O)c(Br)c2)no1
fractional viability [1]: 0.997
fractional viability [2]: 1.06
fractional viability [3]: 0.296
fractional viability [4]: 0.407

CCCCCCCCCCCCCCCC[N+](C)(C)C [Cetrimonium Bromide (CTAB)]
fractional viability [1]: 0.311
fractional viability [2]: 0.295
fractional viability [3]: 0.0593
fractional viability [4]: 0.0171

Cc1c(Cn2c(C)nc3c(C(=O)O)cc(N4CCOCC4)cc32)cccc1C(F)(F)F
fractional viability [1]: 0.754
fractional viability [2]: 0.989
fractional viability [3]: 0.83
fractional viability [4]: 0.849

S=c1nc[nH]c2nc[nH]c12 [6-Mercaptopurine (6-MP) Monohydrate]
fractional viability [1]: 0.741
fractional viability [2]: 0.561
fractional viability [3]: 0.738
fractional viability [4]: 0.731

NCc1c[nH]c(=S)n1[C@H]1CCc2c(F)cc(F)cc2C1 [Nepicastat (SYN-117) HCl]
fractional viability [1]: 0.973
fractional viability [2]: 1.11
fractional viability [3]: 0.953
fractional viability [4]: 0.993

NC(=O)c1cccnc1 [Nicotinamide (Vitamin B3)]
fractional viability [1]: 0.923
fractional viability [2]: 1.16
fractional viability [3]: 0.82
fractional viability [4]: 1

Nc1nccs1 [Aminothiazole]
fractional viability [1]: 0.867
fractional viability [2]: 1.05
fractional viability [3]: 0.896
fractional viability [4]: 0.973

Cn1c(=O)c2c(ncn2CC(O)CO)n(C)c1=O (stereo not given) [Dyphylline]
fractional viability [1]: 1.1
fractional viability [2]: 0.936
fractional viability [3]: 1.01
fractional viability [4]: 1.01

CCCc1nc(C(C)(C)O)c(C(=O)OCc2oc(=O)oc2C)n1Cc1ccc(-c2ccccc2-c2nnn[nH]2)cc1 [Olmesartan Medoxomil]
fractional viability [1]: 0.907
fractional viability [2]: 0.929
fractional viability [3]: 1.1
fractional viability [4]: 1.02

CC(C)(C)c1ccc(S(=O)(=O)NCc2ccc(C(=O)Nc3cccnc3)cc2)cc1
fractional viability [1]: 0.0955
fractional viability [2]: 0.074
fractional viability [3]: 0.0667
fractional viability [4]: 0.0514

CO[C@H]1C(=O)[C@]2(C)[C@@H](OC)C[C@H]3OC[C@@]3(OC(C)=O)[C@H]2[C@H](OC(=O)c2ccccc2)[C@]2(O)C[C@H](OC(=O)[C@H](O)[C@@H](NC(=O)OC(C)(C)C)c3ccccc3)C(C)=C1C2(C)C [Cabazitaxel]
fractional viability [1]: 0.262
fractional viability [2]: 0.283
fractional viability [3]: 0.24
fractional viability [4]: 0.269

O=S(=O)(O)CCSSCCS(=O)(=O)O [Dimesna]
fractional viability [1]: 0.95
fractional viability [2]: 1.09
fractional viability [3]: 0.861
fractional viability [4]: 1.11

Clc1ccccc1C(c1ccccc1)(c1ccccc1)n1ccnc1 [Clotrimazole]
fractional viability [1]: 0.943
fractional viability [2]: 0.974
fractional viability [3]: 0.654
fractional viability [4]: 0.808

NC(=O)NO [Hydroxyurea]
fractional viability [1]: 0.92
fractional viability [2]: 1.14
fractional viability [3]: 0.948
fractional viability [4]: 1.16

Clc1ccc(COC(Cn2ccnc2)c2ccc(Cl)cc2Cl)cc1 (stereo not given) [Econazole nitrate]
fractional viability [1]: 0.9
fractional viability [2]: 1.02
fractional viability [3]: 0.489
fractional viability [4]: 0.918

Cc1cc(CS(=O)(=O)c2ccccc2)cc(OCc2ccc(CN3CCC[C@@H]3CO)cc2)c1
fractional viability [1]: 0.945
fractional viability [2]: 1.07
fractional viability [3]: 0.72
fractional viability [4]: 0.878

CCc1cc(/C(C)=N/OCc2ccc(C3CCCCC3)c(C(F)(F)F)c2)ccc1CN1CC(C(=O)O)C1 [BAF312 (Siponimod)]
fractional viability [1]: 0.913
fractional viability [2]: 1.03
fractional viability [3]: 0.593
fractional viability [4]: 0.808

COc1cc2c(cc1OC)CN(CCc1ccc(NC(=O)c3cccc4c(=O)c5cccc(OC)c5[nH]c34)cc1)CC2
fractional viability [1]: 0.779
fractional viability [2]: 0.958
fractional viability [3]: 0.877
fractional viability [4]: 0.835

CCN(CCCc1ccccc1)CCCc1ccccc1 [Alverine Citrate]
fractional viability [1]: 1.18
fractional viability [2]: 0.98
fractional viability [3]: 0.896
fractional viability [4]: 0.912

Cn1cnc(N)c2ncnc1-2 [3-Methyladenine]
fractional viability [1]: 1.08
fractional viability [2]: 1.09
fractional viability [3]: 0.853
fractional viability [4]: 1.14

Cc1c(O)cccc1C(=O)N[C@@H](CSc1ccccc1)[C@H](O)CN1C[C@H]2CCCC[C@H]2C[C@H]1C(=O)NC(C)(C)C [Nelfinavir Mesylate]
fractional viability [1]: 0.778
fractional viability [2]: 1.11
fractional viability [3]: 0.283
fractional viability [4]: 0.741

CN(C)CCC(c1ccccc1)c1ccccn1 (stereo not given) [Pheniramine Maleate]
fractional viability [1]: 1.06
fractional viability [2]: 1.17
fractional viability [3]: 0.864
fractional viability [4]: 1.06

CC(C)NCCCn1c(Sc2cc3c(cc2I)OCO3)nc2c(N)ncnc21
fractional viability [1]: 0.207
fractional viability [2]: 0.177
fractional viability [3]: 0.233
fractional viability [4]: 0.123

Nc1ccn([C@@H]2O[C@H](CO)[C@@H](O)[C@H]2O)c(=O)n1 [Cytidine]
fractional viability [1]: 0.957
fractional viability [2]: 1.05
fractional viability [3]: 0.95
fractional viability [4]: 1.02

CN(C)CCN1C(=O)c2cccc3cc(N)cc(c23)C1=O [Amonafide]
fractional viability [1]: 0.766
fractional viability [2]: 0.838
fractional viability [3]: 0.32
fractional viability [4]: 0.26

CCOc1ccc(Cc2cc([C@@H]3O[C@H](CO)[C@@H](O)[C@H](O)[C@H]3O)ccc2Cl)cc1 [Dapagliflozin]
fractional viability [1]: 0.901
fractional viability [2]: 1.01
fractional viability [3]: 0.842
fractional viability [4]: 1.01

O[C@@H]1CO[C@H]2[C@@H]1OC[C@@H]2O [Isosorbide]
fractional viability [1]: 0.693
fractional viability [2]: 1.13
fractional viability [3]: 0.625
fractional viability [4]: 1.05

O=c1cc(CN2CCOCC2)occ1OCCCCCSc1ccnc2cc(C(F)(F)F)ccc12
fractional viability [1]: 0.804
fractional viability [2]: 0.892
fractional viability [3]: 0.682
fractional viability [4]: 0.468
